# Measured values published in the supplement of paper PMC5919970.
# Structures can show the parent of a compound that is named as a salt. Whole data set: some 2,000 compounds, median “fractional viability relative to vehicle” near 0.91, cut for the lowest 2% near 0.045. The list shows a part of the results.
# Test system: TYKNU
# Test: fractional viability relative to vehicle; TYKNU is a high-grade serous ovarian cancer line; higher = less growth inhibition
# Conditions: 72 h
# Summary of the method: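 TYKNU control cells or lentiCRISPRv2 knockout derivatives were plated at 500 cells per well in duplicate into drug-stamped 384-well plates holding a ~2100-compound library at 2 or 10 μM. Culture was in RPMI 1640 with 10% FBS at 37 °C in 5% CO2, with 72 h of drug treatment. Viability was measured by Cell Titer Glo luminescence, and the averaged duplicate treatment wells were normalised to duplicate control wells at the same plate position.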
# [1] = 2uM, genotype: DNM1L knockout (sgDNM1L #1)
# [2] = 2uM, genotype: sgCTRLA1 (non-targeting control)
# [3] = 10uM, genotype: DNM1L knockout (sgDNM1L #1)
# [4] = 10uM, genotype: sgCTRLA1 (non-targeting control)
SMILES,fractional viability [1],fractional viability [2],fractional viability [3],fractional viability [4]
CC1(C)CC(=O)c2c(C(F)(F)F)nn(-c3ccc(C(N)=O)c(N[C@H]4CC[C@H](O)CC4)c3)c2C1,0.318,0.191,0.292,0.202
O=C(O)/C=C/c1ccc(O)c(O)c1 [Caffeic Acid],1.07,1.15,0.772,1.11
COc1cc2nc(N(C)CCCNC(=O)C3CCCO3)nc(N)c2cc1OC (centres undefined) [Alfuzosin HCl],1.09,1.05,1.03,0.9
N#CSc1cc(SC#N)c(N)nc1N,0.715,1.01,0.0686,0.0669
N[C@H]1C[C@@H]1c1ccc(-c2cccc(O)c2)cc1,0.733,1.13,0.655,0.979
COc1ccc(-c2ccc3ncc4c(c3c2)n(-c2ccc(N3CCNCC3)c(C(F)(F)F)c2)c(=O)n4C)cn1,0.0297,0.0315,0.0158,0.0115
CC(=O)O[C@]1(C(C)=O)CC[C@H]2[C@@H]3C=C(Cl)C4=CC(=O)[C@@H]5C[C@@H]5[C@]4(C)[C@H]3CC[C@@]21C [Cyproterone Acetate],0.763,0.998,0.766,1.01
CC(C)c1cc(-c2n[nH]c(=O)n2-c2ccc3c(ccn3C)c2)c(O)cc1O [Ganetespib (STA-9090)],0.299,0.204,0.248,0.206
C=CC(=O)Nc1cccc(Nc2nc(Nc3ccc(Oc4ccnc(C(=O)NC)c4)cc3)ncc2F)c1,0.823,1.01,0.241,0.311
CCCSc1nc(N[C@@H]2C[C@H]2c2ccc(F)c(F)c2)c2nnn([C@@H]3C[C@H](OCCO)[C@@H](O)[C@H]3O)c2n1 [Ticagrelor],0.944,1.12,0.492,0.903
Cn1cc(-c2cnn3c(N)c(Br)c([C@@H]4CCCNC4)nc23)cn1,0.366,0.375,0.393,0.42
C=C1C[C@@]2(O)O[C@@]3(C[C@H]2C(C)C)[C@@H](C)CC[C@@H]13 [Curcumol],1.04,1.03,0.901,1.09
O=C(O)COCCN1CCN(C(c2ccccc2)c2ccc(Cl)cc2)CC1 (centres undefined) [Cetirizine DiHCl],1.1,1.2,0.89,1.3
C=CC(=O)Nc1cc(Nc2nccc(-c3cn(C)c4ccccc34)n2)c(OC)cc1N(C)CCN(C)C,0.614,0.895,0.0431,0.0512
C#Cc1cccc(Nc2ncnc3cc4c(cc23)OCCOCCOCCO4)c1 [Icotinib],1.12,1.13,0.941,1.16
Cc1ccc(NCCCc2ccccc2)c(N)c1,0.983,0.888,1.03,0.879

SMILES,fractional viability [1],fractional viability [2],fractional viability [3],fractional viability [4]
C=CC(=O)Nc1cc(Nc2nccc(-c3c[nH]c4ccccc34)n2)c(OC)cc1N(C)CCN(C)C,0.324,0.409,0.0466,0.0525
CC1(C)[C@H](C(=O)O)N2C(=O)C[C@H]2S1(=O)=O [Sulbactam],0.875,0.99,0.898,1.06
CC1(C)[C@H](C(=O)O)N2C(=O)C[C@H]2S1(=O)=O [Sulbactam sodium],1.01,1.16,0.873,1.23
Cc1ncc(CO)c(CO)c1O [Pyridoxine HCl],1.09,1.12,0.753,1.09
O=C(O)c1ccc(-c2c[nH]c3ncc(-c4ccccc4)cc23)cc1C1CCCC1,0.881,0.794,0.524,0.567
CNS(=O)(=O)CCc1ccc2[nH]cc(C3CCN(C)CC3)c2c1 [Naratriptan],1.02,1.07,0.947,1.01
CC(=O)Oc1ccccc1C(=O)O [Aspirin],0.863,1.09,1.01,1.05
N=C(N)NS(=O)(=O)c1ccc(N)cc1 [Sulfaguanidine],0.76,1.12,1.2,1.16
O=C(Nc1nc2cccc(-c3ccc(CN4CCS(=O)(=O)CC4)cc3)n2n1)C1CC1 [Filgotinib (GLPG0634)],0.73,0.849,0.493,0.573
COc1ccc2ccc(=O)oc2c1CC=C(C)C [Osthole],0.841,1.11,0.878,1.11
CC1=C(/C=C/C(C)=C/C=C/C(C)=C/C(=O)O)C(C)(C)CCC1 [Tretinoin],0.784,1.03,0.678,1.02
C[C@]12CC[C@H](O)CC1=CC[C@@H]1[C@@H]2CC[C@]2(C)C(n3cnc4ccccc43)=CC[C@@H]12 [Galeterone],1.06,1.2,0.62,1
CN(C)CCOC(c1ccccc1)c1ccccc1 [Diphenhydramine HCl],0.926,1.2,0.938,1.02
CCOC(=O)CCNc1cc(N2CCc3ccccc3CC2)nc(-c2ccccn2)n1,0.825,0.827,0.105,0.0825
COc1ccc2[nH]c([S+]([O-])Cc3ncc(C)c(OC)c3C)nc2n1 (centres undefined) [Tenatoprazole],0.907,1.23,0.706,1.2
